Holding throughout (assay): Primary Screen for Target Class Profiling of Small Molecule Inhibitors of Methyltransferases
For assay [1], the target named is Glycine N-methyltransferase (Homo sapiens) (UniProt Q14749). As to conditions: purified enzyme, MTase-Glo SAH luminescence; measured here: GNMT inhibition; at 40 µM; stronger effect = lower value. Summed up:
(§1)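 Each enzyme was reacted with SAM and its substrate, with compounds tested once at 40 uM; SAH formed was read by MTase-Glo luminescence.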

Assay [2] has as its target Guanidinoacetate N-methyltransferase (Homo sapiens) (UniProt Q14353). Conditions: purified enzyme, MTase-Glo SAH luminescence; measured here: GAMT inhibition; at 40 µM; stronger effect = lower value. Summed up: as §1
Assay [3] deals with Histamine N-methyltransferase (Homo sapiens) (UniProt P50135). As to conditions: purified enzyme, MTase-Glo SAH luminescence; measured here: HNMT inhibition; at 40 µM; stronger effect = lower value. In a few lines: as §1
Assay [4] deals with Nicotinamide N-methyltransferase (Homo sapiens) (UniProt P40261). As to conditions: purified enzyme, MTase-Glo SAH luminescence; measured here: NNMT inhibition; at 40 µM; stronger effect = lower value. Summed up: as §1
For assay [5], the target named is Phenylethanolamine N-methyltransferase (Homo sapiens) (UniProt P11086). Conditions: purified enzyme, MTase-Glo SAH luminescence; measured here: PNMT inhibition; at 40 µM; stronger effect = lower value. In a few lines:
as §1

Data on 30 compounds can be found in PubChem BioAssay AID1745853 (National Center for Advancing Translational Sciences (NCATS), 2022).

Some of the results follow. The main result of the screen is listed elsewhere. These columns were measured beside it and carry no call.
% is set by controls: 0 for no effect and ±100 for the full control effect.

With `O=C(Cn1ccc2cc(S(=O)(=O)N3CCCCC3)ccc21)NCc1cccc(F)c1`, the activity change, negative = inhibition in assay [1] was -2.66%; in assay [2], 0.198%; in assay [3], -2.38%; in assay [4] it was -5.38%; in assay [5] it was -5.67%.

Turning to `CN1CCN(CCCN2C(=O)c3cc4occc4n3CC2(C)C(=O)NC2CCCCCCC2)CC1` (stereo not given), the activity change, negative = inhibition in assay [1] is 3.03%; in assay [2], 3.9%; in assay [3], -1.68%; in assay [4], 3.78%; in assay [5] it was -1.76%.

For `COCCN1CCCC2(CCN(C(=O)CN3C(=O)CNC3=O)C2)C1=O` (stereo not given), the activity change, negative = inhibition in assay [1] was 3.73%; in assay [2], -0.682%; in assay [3], -0.008%; in assay [4] it was -1.42%; in assay [5] it was -19.5%.

In the case of `Cc1ccccc1NC(=O)CSc1nnc2n(CC(C)C)c(=O)c3ccc(C(=O)NCC(C)C)cc3n12`, the activity change, negative = inhibition in assay [1] came out at 3.9%; in assay [2], 0%; in assay [3], 7.79%; in assay [4] it was 6.61%; in assay [5] it was 2.26%.

For the compound `CSc1ccc(CCNC(=O)c2cc3n(n2)CC(C)(C(=O)NC2CCCCCC2)N(C)C3=O)cc1` (stereo not given), the activity change, negative = inhibition was 3.98% in assay [1]; -3.76% in assay [2]; -1.01% in assay [3]; 0.057% in assay [4]; -11.4% in assay [5].

As for `OC1(CN2CCC(c3nc(-c4ccccc4)no3)CC2)CNCCOC1` (stereo not given), the activity change, negative = inhibition in assay [1] is -1.34%; in assay [2], -10.2%; in assay [3], -2.29%; in assay [4], -4.95%; in assay [5] it was -0.833%.

In the case of `CC1(C)CC(=O)c2c(C(F)(F)F)nn(-c3ccc(C(N)=O)c(NC4CCC(O)CC4)c3)c2C1` (stereo not given), the activity change, negative = inhibition in assay [1] is -24.5%; in assay [2] it was -20.1%; in assay [3], 4.5%; in assay [4], -36.9%; in assay [5] it was -2.52%.

As for `CCc1nccc(-c2c(-c3ccccc3)ncn2CC(O)c2ccccc2)n1` (stereo not given), the activity change, negative = inhibition in assay [1] was -2.27%; in assay [2] it was -8.75%; in assay [3], -1.67%; in assay [4], -8.85%; in assay [5], -6.28%.

On to `COCCC1(CO)CCCN(C(=O)CCc2c(C)noc2C)C1` (stereo not given), for which the activity change, negative = inhibition in assay [1] is -0.593%; in assay [2], -0.562%; in assay [3] it was -2.62%; in assay [4], -1.61%; in assay [5] it was -0.13%.

Consider `Cc1c(O)cccc1C(=O)N[C@@H](CSc1ccccc1)[C@H](O)CN1C[C@H]2CCCC[C@H]2C[C@H]1C(=O)NC(C)(C)C`, for which the activity change, negative = inhibition in assay [1] was -11.9%; in assay [2], 4.2%; in assay [3] it was -3.58%; in assay [4] it was -17.5%; in assay [5], 6.44%.

In the case of `Cc1ccc(CN2C(=O)c3cc4sccc4n3CC2(C)C(=O)NC2CCCCC2C)cc1` (stereo not given), the activity change, negative = inhibition in assay [1] was -5.12%; in assay [2], 5.99%; in assay [3], -2.78%; in assay [4] it was 0.591%; in assay [5], -1.7%.

Take `Cc1cc2c(cc3n2CC(C)(C(=O)NC2CCCCCC2)N(CCC(C)C)C3=O)o1` (stereo not given): the activity change, negative = inhibition in assay [1] is -0.148%; in assay [2], 0%; in assay [3], 8.8%; in assay [4] it was -4.64%; in assay [5], 4%.

In the case of `Cc1cccc(C2CCCN(C(=O)c3cn(CCc4ccccc4)nn3)C2)c1` (stereo not given), the activity change, negative = inhibition in assay [1] was -4.77%; in assay [2], -2.86%; in assay [3], -4.41%; in assay [4], -7.13%; in assay [5], -9.39%.

As to `COc1ccc(Cn2c(=O)c3ccccc3n3c(-c4ccccc4OC)nnc23)cc1`, the activity change, negative = inhibition in assay [1] was -0.437%; in assay [2], 1.41%; in assay [3], 2.54%; in assay [4] it was 4.54%; in assay [5], 1.2%.

Regarding `CCC(C)CNCC(=O)N1CCc2sccc2C1COc1cccc(C)c1` (stereo not given), the activity change, negative = inhibition in assay [1] was 4.78%; in assay [2] it was 19.2%; in assay [3], 7.84%; in assay [4] it was -18.9%; in assay [5], 3.2%.

As for `CC(C)CNC(=O)c1ccc2c(=O)n(CC(C)C)c3nnc(SCC(N)=O)n3c2c1`, the activity change, negative = inhibition in assay [1] stood at 3.44%; in assay [2], 0.236%; in assay [3], 4.82%; in assay [4], 5.42%; in assay [5], 5.9%.

For `CSc1ccc(CCNC(=O)c2cc3n(n2)CC(C)(C(=O)NCCC(C)C)N(C)C3=O)cc1` (stereo not given), the activity change, negative = inhibition is -1.38% in assay [1]; 0% in assay [2]; 2.35% in assay [3]; -3.77% in assay [4]; -2.29% in assay [5].

As for `C/C=C(\C)C(=O)OC1C(C)C2(O)C(C=C(CO)CC3(O)C(=O)C(C)=CC32)C2C(C)(C)C12OC(=O)C(C)C` (stereo not given), the activity change, negative = inhibition is -2.86% in assay [1]; -9.35% in assay [2]; 4.1% in assay [3]; -20.8% in assay [4]; -5.39% in assay [5].

With `CCc1nncn1C1CCN(C(=O)c2cc(-c3cccs3)[nH]n2)C1` (stereo not given), the activity change, negative = inhibition was -15.6% in assay [1]; -7.85% in assay [2]; -4% in assay [3]; -15.3% in assay [4]; -4.02% in assay [5].

Turning to `COc1ccc(OC)c2c1cc1n2CC(C)(C(=O)NC2CCCC2)N(CCN2CCOCC2)C1=O` (stereo not given), the activity change, negative = inhibition in assay [1] is -0.14%; in assay [2], 0%; in assay [3], 10.7%; in assay [4], 10.6%; in assay [5], 3.18%.

Consider `O=c1cc(CN2CCOCC2)occ1OCCCCCSc1ccnc2cc(C(F)(F)F)ccc12`, for which the activity change, negative = inhibition is -28.2% in assay [1]; -8.17% in assay [2]; -7.27% in assay [3]; -33.4% in assay [4]; -7.06% in assay [5].

Take `Cc1ccccc1N1C(=O)c2cc3ccccc3n2CC1(C)C(=O)NCCC(C)C` (stereo not given): the activity change, negative = inhibition in assay [1] amounted to 3.93%; in assay [2] it was 0.688%; in assay [3] it was 5.87%; in assay [4] it was 5.68%; in assay [5] it was 1.99%.

On to `CCOC(=O)c1cc2n(n1)CC(C)(C(=O)NC1CCCCCC1)N(c1ccc(C)cc1C)C2=O` (stereo not given), for which the activity change, negative = inhibition in assay [1] worked out at 8.91%; in assay [2], 1.76%; in assay [3], 6.41%; in assay [4], 12.1%; in assay [5], 7.33%.

In the case of `COc1ccc(/C=C2\COc3ccc(C)cc3C2=O)cc1O`, the activity change, negative = inhibition in assay [1] was -33.2%; in assay [2] it was 7.73%; in assay [3], -3.47%; in assay [4], -17.9%; in assay [5], 2.09%.

Consider `Cc1ccc(-c2coc(-c3ccc(NS(=O)(=O)c4ccc5c(c4)n(C)c(=O)n5C)cc3)n2)c(C)c1`, for which the activity change, negative = inhibition in assay [1] was 6.49%; in assay [2], 0%; in assay [3], 5.35%; in assay [4], -3.12%; in assay [5] it was 0.61%.

With `COc1cccc(CN2CCOC3CCN(Cc4ccccc4Cl)CC3C2=O)c1` (stereo not given), the activity change, negative = inhibition in assay [1] is -7.63%; in assay [2], -5.84%; in assay [3], -5.5%; in assay [4], -11.8%; in assay [5] it was -3.24%.

Turning to `CCc1ccc(NC(=O)CSc2nnc3n(CC(C)C)c(=O)c4ccccc4n23)cc1`, the activity change, negative = inhibition in assay [1] was -20.7%; in assay [2] it was -7.24%; in assay [3] it was 7.89%; in assay [4], -16.2%; in assay [5] it was -3.73%.

In the case of `COC(=O)c1cc2n(n1)CC(C)(C(=O)NC1CCCCCC1)N(c1cc(OC)cc(OC)c1)C2=O` (stereo not given), the activity change, negative = inhibition in assay [1] is -4.07%; in assay [2], -0.067%; in assay [3] it was -2.58%; in assay [4] it was -5.77%; in assay [5] it was -4.51%.

Regarding `COc1ccc(C(=O)NC[C@H]2O[C@@H](CC(=O)N3CCN(c4ccccc4)CC3)[C@H](O)[C@@H]2O)cc1`, the activity change, negative = inhibition in assay [1] is -8.1%; in assay [2], -8.68%; in assay [3], -5.28%; in assay [4], -0.349%; in assay [5], -7.05%.

In the case of `COC1=C(OC)C(=O)c2ccccc2C1=O`, the activity change, negative = inhibition is -40.9% in assay [1]; -13.3% in assay [2]; -13.4% in assay [3]; -17.7% in assay [4]; -9.96% in assay [5].
